Our source for the activity change, negative = inhibition values is PubChem BioAssay AID1745853 (National Center for Advancing Translational Sciences (NCATS), 2022).

Test in all cases: Primary Screen for Target Class Profiling of Small Molecule Inhibitors of Methyltransferases
Test [1] concerns the target Glycine N-methyltransferase (Homo sapiens) (UniProt Q14749). Conditions: purified enzyme, MTase-Glo SAH luminescence; measured here: GNMT inhibition; at 40 µM; stronger effect = lower value. An outline of the steps:
(§1)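 Each enzyme was assayed with SAM and its substrate. SAH formation detected by MTase-Glo luminescence; single-point 40 uM screen[…].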

Test [2] addresses Guanidinoacetate N-methyltransferase (Homo sapiens) (UniProt Q14353). The note with it: purified enzyme, MTase-Glo SAH luminescence; measured here: GAMT inhibition; at 40 µM; stronger effect = lower value. An outline of the steps: as §1
The target in test [3] is Histamine N-methyltransferase (Homo sapiens) (UniProt P50135). Conditions: purified enzyme, MTase-Glo SAH luminescence; measured here: HNMT inhibition; at 40 µM; stronger effect = lower value. In outline:
as §1

The target of test [4] is Nicotinamide N-methyltransferase (Homo sapiens) (UniProt P40261). Conditions: purified enzyme, MTase-Glo SAH luminescence; measured here: NNMT inhibition; at 40 µM; stronger effect = lower value. In outline:
as §1

The target of test [5] is Phenylethanolamine N-methyltransferase (Homo sapiens) (UniProt P11086). Conditions: purified enzyme, MTase-Glo SAH luminescence; measured here: PNMT inhibition; at 40 µM; stronger effect = lower value. An outline of the steps: as §1

The other results are listed elsewhere or left out. Shown are side measurements of this screen, not its main read-out; they come without a call.
% is set by controls: 0 for no effect and ±100 for the full control effect.

With `CCCc1nc(C(=O)N2CC[C@H](CO)[C@H](O)C2)cs1`, the activity change, negative = inhibition is -3.07% in test [1]; -8.34% in test [2]; -1.68% in test [3]; -11.2% in test [4]; -6.46% in test [5].

For `Cc1ccc2[nH]c(=O)c(C3=NN(C(=O)CCC(=O)O)C(c4ccc(Br)cc4)C3)c(-c3ccccc3)c2c1` (stereo not drawn), the activity change, negative = inhibition is -38.5% in test [1]; 15.6% in test [2]; 1.94% in test [3]; -24.1% in test [4]; 2.72% in test [5].

In the case of `COC(=O)c1ncn2c1C(=O)N(Cc1ccc3c(c1)OCO3)C(C)(C(=O)NC1CCCCC1)C2` (stereo not drawn), the activity change, negative = inhibition in test [1] is 2.2%; in test [2], 0%; in test [3] it was 3.08%; in test [4] it was -2.11%; in test [5], 3.94%.

For the molecule `Cc1cc(C(=O)NCC2(COc3ccc(S(C)(=O)=O)cc3)C[C@@H](O)[C@@H](O)C2)n(C)n1` (stereo partly drawn), the activity change, negative = inhibition in test [1] is -3.07%; in test [2], 3.46%; in test [3], 0.367%; in test [4], -2.56%; in test [5], 14.5%.

As to `COc1ccc(N2CCN(C(=O)CCCc3nnc4n5nc(C)nc5c5ccccc5n34)CC2)cc1`, the activity change, negative = inhibition in test [1] was -19.6%; in test [2] it was 0.093%; in test [3] it was 10.7%; in test [4], 15.8%; in test [5] it was 3.58%.

For `C/C=C(\C)C(=O)O[C@H]1[C@H](O)[C@]2(COC(C)=O)[C@H](O)C[C@]3(C)C(=CCC4[C@@]5(C)CC[C@H](O[C@@H]6O[C@H](C(=O)O)[C@@H](O[C@@H]7O[C@H](CO)[C@@H](O)[C@H](O)[C@H]7O)[C@H](O)[C@H]6O[C@@H]6O[C@H](CO)[C@@H](O)[C@H](O)[C@H]6O)[C@](C)(CO)C5CC[C@]43C)[C@@H]2CC1(C)C` (stereo partly drawn), the activity change, negative = inhibition in test [1] was -5.97%; in test [2], 12.9%; in test [3] it was -1.45%; in test [4], 1.02%; in test [5] it was 9.64%.

As for `O=C(OCc1ccccc1)N1CCC2(CC1)C(=O)NN=C2C1CC1`, the activity change, negative = inhibition in test [1] was -11.3%; in test [2] it was -7.64%; in test [3], -1.74%; in test [4] it was -21.9%; in test [5], -11.9%.

On to `CCOc1ccc(N2C(=O)CSc3c(c4ccccc4n3C)C2C(=O)NCc2ccccc2OC)cc1` (stereo not drawn), for which the activity change, negative = inhibition came out at 11.7% in test [1]; 0% in test [2]; 2.86% in test [3]; 8.7% in test [4]; 11.4% in test [5].

`C=C1C(=O)OC2C1C(O)CC1(C)C(O)CCC(C=O)C21` (stereo not drawn): the activity change, negative = inhibition in test [1] is 3.31%; in test [2], 1.49%; in test [3], 11.3%; in test [4] it was -7.9%; in test [5] it was 4.05%.

Regarding `C=C1C[C@]23C[C@H]1CC[C@H]2[C@]1(C)CC[C@H](O)[C@@](C)(C(=O)O)[C@H]1[C@@H]3C(=O)O`, the activity change, negative = inhibition is 0% in test [1]; -8.78% in test [2]; 5.66% in test [3]; -23.3% in test [4]; -10% in test [5].

For `c1ccc([C@H]2CN3CCSC3=N2)cc1`, the activity change, negative = inhibition was 2.56% in test [1]; 10.5% in test [2]; -7.79% in test [3]; -2.28% in test [4]; 6.86% in test [5].

For the molecule `CCCCN1C(=O)c2cc(C(=O)Nc3ccc(Cl)cc3C)nn2CC1(C)C(=O)NC1CCCC1` (stereo not drawn), the activity change, negative = inhibition in test [1] is 0.323%; in test [2] it was 1.49%; in test [3] it was -13.4%; in test [4] it was -0.6%; in test [5], -0.716%.

For the molecule `COc1ccc2cc3n(c2c1)CC(C)(C(=O)NC1CCCCCCC1)N(CCN1CCOCC1)C3=O` (stereo not drawn), the activity change, negative = inhibition in test [1] is 1.7%; in test [2], -0.268%; in test [3] it was 1.28%; in test [4], -0.768%; in test [5] it was -4.85%.

Consider `COc1ccc(NC(=O)Cn2nc3n(CCc4ccccc4)c(=O)c4ccccc4n3c2=O)cc1OC`, for which the activity change, negative = inhibition in test [1] was found to be 3.99%; in test [2], 4.83%; in test [3], 7%; in test [4], 5.38%; in test [5], 4.5%.

In the case of `COc1cc(NC(=O)CSc2nnc3n(CC(C)C)c(=O)c4cc(F)ccc4n23)cc(OC)c1`, the activity change, negative = inhibition in test [1] was determined as 4.31%; in test [2], 1.92%; in test [3], 9.36%; in test [4], 5.87%; in test [5] it was 1.21%.

On to `CC1=C2C(=O)C=C(CO[C@@H]3O[C@H](CO)[C@@H](O)[C@H](O)[C@H]3O)[C@@H]2[C@H]2OC(=O)[C@H](C)[C@@H]2[C@@H](O)C1`, for which the activity change, negative = inhibition is 3.66% in test [1]; 10.6% in test [2]; 6.04% in test [3]; -2.99% in test [4]; 8.59% in test [5].

Turning to `O=C(NCCCCCCCCNC(=O)C(Cl)Cl)C(Cl)Cl`, the activity change, negative = inhibition in test [1] is -2.75%; in test [2] it was -0.674%; in test [3], 2.41%; in test [4], -9.54%; in test [5] it was -2.49%.

Take `COc1ccc(N2CCN(S(=O)(=O)c3ccc4c(c3)n(C)c(=O)n4C)CC2)cc1`: the activity change, negative = inhibition in test [1] was 8.44%; in test [2], -4%; in test [3], -2.91%; in test [4] it was 2.84%; in test [5], -4.54%.

Regarding `COc1ccc2c(c1)c(NC(C)=O)c1n2CC(C)(C(=O)NC2CCCC2)N(Cc2ccccn2)C1=O` (stereo not drawn), the activity change, negative = inhibition in test [1] was found to be 5.59%; in test [2], 0%; in test [3], 3.83%; in test [4], 7.11%; in test [5], 2.96%.

Regarding `O=C(CCc1nnn2c1CN(C(=O)C1CCCC1)CC2)N1CCOCC1`, the activity change, negative = inhibition in test [1] was -2.68%; in test [2] it was -5.04%; in test [3] it was -1.18%; in test [4], -5.44%; in test [5] it was 4.32%.

As for `CCN(Cc1ccccc1)C(=O)CCn1ccc2cc(S(=O)(=O)N3CCCCC3)ccc21`, the activity change, negative = inhibition in test [1] was 4.41%; in test [2], 0%; in test [3], 1.35%; in test [4], 2.46%; in test [5] it was -0.109%.

Take `O=S(=O)(NCCn1c(-c2ccccc2)nc2ccccc21)c1ccc(F)c(F)c1`: the activity change, negative = inhibition in test [1] was -6.95%; in test [2], -0.775%; in test [3], 5.36%; in test [4], -7.89%; in test [5] it was 12.5%.

Regarding `CCCN1C(=O)c2cc(C(=O)NCCc3ccc(Cl)cc3)nn2CC1(C)C(=O)NC1CCCC1` (stereo not drawn), the activity change, negative = inhibition was 4.99% in test [1]; 0.406% in test [2]; -4.73% in test [3]; 1.68% in test [4]; 1.76% in test [5].

In the case of `CCCN1C(=O)c2c(C(=O)NCCCN3CCOCC3)ncn2CC1(C)C(=O)NCc1ccc(C)cc1` (stereo not drawn), the activity change, negative = inhibition in test [1] is -1.02%; in test [2] it was 3.65%; in test [3] it was 3.06%; in test [4], 0.161%; in test [5], -1.03%.

As for `Cc1noc(C)c1-c1cc2c(cc(C)n2C)c(-c2ccnn2C)n1`, the activity change, negative = inhibition is -13.4% in test [1]; -10.7% in test [2]; -19.3% in test [3]; -31% in test [4]; -13.9% in test [5].

Turning to `CCC(C)N1Cc2cc(NC(=O)Cc3cccc(OC)c3)ccc2OCC1=O` (stereo not drawn), the activity change, negative = inhibition is -6.09% in test [1]; -1.23% in test [2]; -4.2% in test [3]; -12.3% in test [4]; 8.86% in test [5].

Regarding `CCn1cc(S(=O)(=O)NCC2Cn3cccc3C(=O)N2C)cn1` (stereo not drawn), the activity change, negative = inhibition is -4.17% in test [1]; -3% in test [2]; -1.56% in test [3]; -4.33% in test [4]; -7.88% in test [5].

For the molecule `Cc1nc(N2CCCCCC2)ncc1C(=O)O`, the activity change, negative = inhibition was -12% in test [1]; -10.4% in test [2]; -6.03% in test [3]; -17.8% in test [4]; -14.4% in test [5].

As for `CC(C)/C=C1/NC(=O)C(C(C)C)n2c1nc1c(O)cccc1c2=O` (stereo not drawn), the activity change, negative = inhibition is 0% in test [1]; -4.65% in test [2]; -5.96% in test [3]; -24.8% in test [4]; -3.29% in test [5].

As to `CCN(CC)CC1CCN(c2ncc3ncnc(Nc4ccc(F)c(Cl)c4)c3n2)CC1`, the activity change, negative = inhibition is -19.4% in test [2], -30.7% in test [4] and -40.4% in test [5].

In the case of `COc1cc(C(C)=O)ccc1O[C@@H]1O[C@H](CO)[C@@H](O)[C@H](O)[C@H]1O`, the activity change, negative = inhibition in test [1] is -4.79%; in test [2], -9.97%; in test [3], 2.2%; in test [4], -20.1%; in test [5], -7.08%.

As for `Cc1ccc(C)c(C(=O)Cn2nc3n(C)c(=O)c4ccc(C(=O)NC5CCCC5)cc4n3c2=O)c1`, the activity change, negative = inhibition was determined as 8% in test [1]; 1.54% in test [2]; 2.54% in test [3]; 5.77% in test [4]; 7.25% in test [5].

Turning to `CCCCN1C(=O)c2cc(C(=O)Nc3cc(C)ccc3OC)nn2CC1(C)C(=O)NC1CCCC1` (stereo not drawn), the activity change, negative = inhibition is 3.91% in test [1]; 0.759% in test [2]; -3.83% in test [3]; 4.75% in test [4]; 4.86% in test [5].

In the case of `Cc1cc(Cl)ccc1N1C(=O)c2cc(C(C)(C)C)nn2CC1(C)C(=O)NCCC(C)C` (stereo not drawn), the activity change, negative = inhibition was 5.22% in test [1]; 2.45% in test [2]; 4.05% in test [3]; 5.77% in test [4]; -2.61% in test [5].

For `Cc1ccc(NC(=O)Cn2c(=O)oc3cc(S(=O)(=O)N4CCCC4)ccc32)c(Br)c1`, the activity change, negative = inhibition in test [1] was 14.6%; in test [2], 0%; in test [3], 13.1%; in test [4], 2.4%; in test [5], 6.47%.

Turning to `Cc1noc2c(-c3cnn(C)c3)cc(-c3cccnc3)nc12`, the activity change, negative = inhibition in test [1] was -14.1%; in test [2] it was -3.18%; in test [3] it was -8.5%; in test [4], -19%; in test [5], -4.3%.
